We go through 55 compounds from publication PMC4336329 (PLoS ONE, 2015).

Screen size: about 310,000 compounds; about 2,200 (0.71%) showed an effect of 50% or more. Effects have a minus sign here. The list shows a part of the results.

Sequence of human ether-à-go-go-related gene (hERG) potassium channel (Q12809 whole entry, looked up): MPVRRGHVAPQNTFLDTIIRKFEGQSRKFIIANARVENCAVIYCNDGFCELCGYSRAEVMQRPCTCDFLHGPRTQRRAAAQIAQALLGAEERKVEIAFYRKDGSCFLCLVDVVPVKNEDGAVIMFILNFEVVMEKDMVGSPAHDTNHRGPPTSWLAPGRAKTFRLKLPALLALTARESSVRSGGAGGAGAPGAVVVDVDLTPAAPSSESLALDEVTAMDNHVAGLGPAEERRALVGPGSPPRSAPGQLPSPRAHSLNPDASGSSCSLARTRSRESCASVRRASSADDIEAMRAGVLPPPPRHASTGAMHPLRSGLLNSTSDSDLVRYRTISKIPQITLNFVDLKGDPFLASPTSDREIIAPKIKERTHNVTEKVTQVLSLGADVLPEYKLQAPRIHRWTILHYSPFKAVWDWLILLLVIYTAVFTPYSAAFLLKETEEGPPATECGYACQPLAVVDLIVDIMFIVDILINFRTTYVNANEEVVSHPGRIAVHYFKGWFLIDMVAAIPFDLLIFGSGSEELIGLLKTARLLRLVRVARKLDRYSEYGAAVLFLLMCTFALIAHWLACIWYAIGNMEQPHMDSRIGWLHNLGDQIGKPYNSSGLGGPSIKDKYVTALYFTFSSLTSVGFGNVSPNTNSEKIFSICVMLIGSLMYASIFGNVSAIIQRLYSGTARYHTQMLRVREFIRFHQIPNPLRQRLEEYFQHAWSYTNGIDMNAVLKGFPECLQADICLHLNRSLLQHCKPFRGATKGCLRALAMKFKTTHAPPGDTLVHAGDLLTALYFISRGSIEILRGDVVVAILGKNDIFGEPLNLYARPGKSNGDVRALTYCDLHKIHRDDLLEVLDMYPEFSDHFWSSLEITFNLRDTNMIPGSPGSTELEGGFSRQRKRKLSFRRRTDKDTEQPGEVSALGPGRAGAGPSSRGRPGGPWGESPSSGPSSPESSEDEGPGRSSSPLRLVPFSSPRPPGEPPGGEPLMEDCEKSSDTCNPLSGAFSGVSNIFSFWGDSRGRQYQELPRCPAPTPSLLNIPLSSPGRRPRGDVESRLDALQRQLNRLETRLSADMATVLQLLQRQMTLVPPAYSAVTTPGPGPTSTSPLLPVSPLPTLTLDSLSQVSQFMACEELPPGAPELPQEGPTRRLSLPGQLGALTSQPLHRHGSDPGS

The assay has as its target human ether-à-go-go-related gene (hERG) potassium channel (human, UniProt Q12809). As to the kind of experiment: primary screen, population patch clamp on CHO cells stably expressing hERG.
With `COc1cc(-c2n[nH]c(=S)n2-c2ccc(Br)cc2)cc(OC)c1OC`, the “hERG current change (%, negative = inhibition) at 1uM” value stood at 6.8%.
For `Cc1cccc(OCC2=NS(=O)(=O)c3ccccc3N2)c1`, the “hERG current change (%, negative = inhibition) at 1uM” value is reported as -3.55%.
The result for `Cc1cccn2c(=O)c(C=O)c(N3CC(C)OC(C)C3)nc12` (stereo not shown) reads 15.5%; that for `Cc1cc(Cl)ccc1NC(=S)NCc1ccccc1`, 10.7%; that for `COc1cc2c(cc1OC)CN(Cc1ccc(F)cc1)CC2`, 3.91%.
As to `S=C(NCCc1cccc(Cl)c1)NC1CCCCC1`, the “hERG current change (%, negative = inhibition) at 1uM” value turned out to be 21.9%.
As to `O=C(O)C1(P(=O)(c2ccccc2)c2ccccc2)CCC1`, the “hERG current change (%, negative = inhibition) at 1uM” value came out at 1.7%.
Regarding `COc1ccc(C(=O)NCc2ccc(Cl)cc2)cc1S(=O)(=O)N1CCCC1`, the “hERG current change (%, negative = inhibition) at 1uM” value is recorded as 7.16%.
Regarding `COC(=O)C1=C[C@@H](C(=O)OC)[C@@H]2C3=C(C(=O)[C@@]2(C)NC(=O)c2ccccc2)[C@H](c2ccccc2)n2c(=O)n(-c4ccccc4)c(=O)n2[C@@H]3C1`, the “hERG current change (%, negative = inhibition) at 1uM” value came out at 16%.
As to `CCOC(=O)c1cc2c(ccn2C)n1CC(=O)N(C)C`, the “hERG current change (%, negative = inhibition) at 1uM” value is given as 5.01%.
Turning to `CCOC(=O)CN1CC23C=CC(O2)C(C(=O)NCc2ccc(F)cc2)C3C1=O` (stereo not shown), the “hERG current change (%, negative = inhibition) at 1uM” value is given as 8.57%.
The same measure for `CC1CCCCN1CCNC(=O)Cn1nc(-c2ccccc2)ccc1=O` (stereo not shown): 12.7%; for `CC(C)(C)N1CC(c2nc3ccccc3n2Cc2ccccc2)CC1=O` (stereo not shown): 0.803%.
Consider `O=C(CSc1nc2ccccc2c(=O)n1-c1ccc(F)cc1)Nc1ccc(N2CCOCC2)cc1`, for which the “hERG current change (%, negative = inhibition) at 1uM” value was 0.241%.
Regarding `CC(C)c1nnc(NC(=O)Cn2nc(-c3ccc4c(c3)OCCO4)ccc2=O)s1`, the “hERG current change (%, negative = inhibition) at 1uM” value was found to be 15.3%.
With `CCOc1ccc(-n2c(Cc3ccccc3)nnc2SCc2c(C)noc2C)cc1`, the “hERG current change (%, negative = inhibition) at 1uM” value is -13.6%.
Turning to `O=C(NC1CCCC1)C(c1ccc(F)cc1)N(Cc1ccc(Cl)cc1)C(=O)CCl` (stereo not shown), the “hERG current change (%, negative = inhibition) at 1uM” value was -0.346%.
Take `CCN1CCN(S(=O)(=O)c2ccc(Cl)c(C(=O)Nc3ccccc3N3CCOCC3)c2)CC1`: the “hERG current change (%, negative = inhibition) at 1uM” value was determined as 21.7%.
Take `O=C(Cc1ccccc1)N1CCN(S(=O)(=O)c2ccc([N+](=O)[O-])cc2)CC1`: the “hERG current change (%, negative = inhibition) at 1uM” value is listed as -24.6%.
As for `O=C1c2ccccc2NC(c2cccc([N+](=O)[O-])c2)N1CCc1ccccc1` (stereo not shown), the “hERG current change (%, negative = inhibition) at 1uM” value is listed as 11.3%.
Consider `Cc1ccc(C2Nc3ccccc3NC3=C2C(=O)CC(C)(C)C3)c(O)c1` (stereo not shown), for which the “hERG current change (%, negative = inhibition) at 1uM” value worked out at 5.6%.
For `CC(=O)n1c2ccccc2c2nc(NC(C)C)sc21`, the “hERG current change (%, negative = inhibition) at 1uM” value is listed as 3.52%.
In the case of `CC(C)CC(CC(C)C)=NNC(=O)c1ccc(CSc2nncn2C)cc1`, the “hERG current change (%, negative = inhibition) at 1uM” value was determined as 5.68%.
Turning to `Cc1ccc(C(=O)Oc2cc(N)n(S(=O)(=O)c3ccc(F)cc3)n2)cc1`, the “hERG current change (%, negative = inhibition) at 1uM” value worked out at 16.5%.
As to `CCOc1ccc(OCC)c(NC(=O)C2CCN(S(=O)(=O)c3cnc[nH]3)CC2)c1`, the “hERG current change (%, negative = inhibition) at 1uM” value is -9.35%.
Turning to `Cc1cc(N2CCN(S(=O)(=O)c3ccc(C)c(C)c3)CC2)c2ccccc2n1`, the “hERG current change (%, negative = inhibition) at 1uM” value was -18.3%.
Consider `O=C(NN=C1c2ccccc2-c2ccccc21)c1ccccc1Br`, for which the “hERG current change (%, negative = inhibition) at 1uM” value is listed as 4.88%.
Turning to `Cc1cc(NC(=O)CN2CCN(S(=O)(=O)c3ccc(Cl)cc3)CC2)no1`, the “hERG current change (%, negative = inhibition) at 1uM” value is recorded as 0.547%.
The same measure for `CC(=O)N1c2ccc(S(=O)(=O)N3CCCC3)cc2CC1C(=O)NC(C)C` (stereo not shown): 14%; for `O=C1CCCC(O)=C1N=Nc1ccc(S(=O)(=O)N2CCOCC2)cc1`: 7.14%; for `COc1ccc(-c2ccc(C#N)c(SCC(=O)NCc3ccco3)n2)cc1OC`: 10.5%.
As for `CCc1ccc(OCC(=O)Nc2ccc(N3CCN(C(=O)c4ccccc4)CC3)cc2)cc1`, the “hERG current change (%, negative = inhibition) at 1uM” value was found to be 5.37%.
With `O=C(Nc1nnc(-c2ccccc2F)s1)c1ccccc1F`, the “hERG current change (%, negative = inhibition) at 1uM” value came out at 9.06%.
Take `CCN(CC)S(=O)(=O)c1ccc(OC)c(NC(=O)CC2CCCC2)c1`: the “hERG current change (%, negative = inhibition) at 1uM” value turned out to be 3.73%.
As for `Cc1cc2cc(CNS(=O)(=O)N(C)C)ccc2[nH]1`, the “hERG current change (%, negative = inhibition) at 1uM” value is 10.6%.
Consider `Cc1cc(C)c(C)c(S(=O)(=O)N2CCC(C(=O)NCCCN3CCOCC3)CC2)c1C`, for which the “hERG current change (%, negative = inhibition) at 1uM” value is reported as 11.8%.
As for `Cc1ccc(C(=O)C(C)[n+]2cccc(C(N)=O)c2)cc1.[Br-]` (stereo not shown), the “hERG current change (%, negative = inhibition) at 1uM” value was determined as 4.11%.
As for `CCc1cccc(NC(=O)CC2Oc3ccccc3NC2=O)c1` (stereo not shown), the “hERG current change (%, negative = inhibition) at 1uM” value was found to be 14.3%.
For the compound `COc1nc(-c2ccccc2)c2cc(C)ccc2n1`, the “hERG current change (%, negative = inhibition) at 1uM” value is recorded as 18.3%.
Take `CCN(CC)c1ccc(/C=N/OCC(=O)Nc2cccc(C)c2)cc1`: the “hERG current change (%, negative = inhibition) at 1uM” value came to 10.8%.
The result for `O=C(CN1CCN(CCN2C(=O)c3cccc4cccc(c34)C2=O)CC1)c1ccc(F)cc1` reads 0.126%.
On to `COc1ccc(CN2CCCC(CNC(=O)c3ccc(F)cc3)C2)c(F)c1` (stereo not shown), for which the “hERG current change (%, negative = inhibition) at 1uM” value was -50.4%.
With `Cc1nc2nc(C)c(CCC(=O)O)c(C)n2n1`, the “hERG current change (%, negative = inhibition) at 1uM” value came out at 16.7%.
In the case of `O=C1/C(=C/c2ccc(O)c(O)c2)Oc2cc(O)ccc21`, the “hERG current change (%, negative = inhibition) at 1uM” value is reported as 9.11%.
Consider `Cn1c(=O)n(C)c2cc([N+](=O)[O-])c(N3CCN(S(=O)(=O)c4ccc5ccccc5c4)CC3)cc21`, for which the “hERG current change (%, negative = inhibition) at 1uM” value was found to be 12.7%.
Regarding `S=c1[nH]c2cc3ccccc3cc2[nH]1`, the “hERG current change (%, negative = inhibition) at 1uM” value is listed as 8.7%.
`Clc1ccccc1-c1ccc(/C=N/Nc2nncc(-c3ccccc3)n2)o1`: the “hERG current change (%, negative = inhibition) at 1uM” value was 1.05%.
Regarding `Cc1ccc(C)c(S(=O)(=O)N2CCCOC2CNC(=O)C(=O)NCCCn2ccnc2)c1` (stereo not shown), the “hERG current change (%, negative = inhibition) at 1uM” value stood at 1.43%.
Take `COCCn1c(=S)[nH]c2cc(C(=O)N3CCCC(C)C3)ccc2c1=O` (stereo not shown): the “hERG current change (%, negative = inhibition) at 1uM” value came to 15.7%.
`O=C(Cc1cccs1)Nc1ccc(F)cc1`: the “hERG current change (%, negative = inhibition) at 1uM” value was 11.6%.
With `COC(=O)c1ccccc1NC(=O)c1ccc2c(c1)CC(C)O2` (stereo not shown), the “hERG current change (%, negative = inhibition) at 1uM” value came to 0.443%.
The result for `COc1ccc(C(O)P(=O)(OC(C)C)OC(C)C)cc1` (stereo not shown) reads 13%; that for `Cc1nnc2sc(-c3ccc(NC(=O)CSc4ccc(Cl)cc4)cc3)nn12`, 3.52%.
For the compound `Cl.O=C(CN1CCCC1)Nc1cccc(Cl)c1`, the “hERG current change (%, negative = inhibition) at 1uM” value stood at 5.1%.
Turning to `O=C(Cn1c(=O)n(Cc2ccco2)c(=O)c2c3c(sc21)CCCC3)Nc1ccccc1`, the “hERG current change (%, negative = inhibition) at 1uM” value is 9.46%.
